# Experimental data reported in PubChem BioAssay (NCATS).
# Several values for one entry are separate records, joined by “and”; a condition that tells them apart may be missing. Equal entries are not always repeated. This list was built around the results that the source calls inconclusive (neither active nor inactive); the mix of calls is not that of the screen. For some of these results: Potencies of inconclusive entries are doubtful fits and often do not repeat. Activity calls are given as the source filed them. Unless noted, calls follow the shape of the dose curve; as a rule, active = well fitted curve in either direction with a large enough effect (not every such curve was filed as active); inconclusive = small, poorly fitted or top-dose-only effect, or another doubt; inactive = flat fitted curve, though single readings scatter.
# Columns and labels:
# [1] = AP1 Signaling Pathway (AID 357); conditions: ME-180 AP-1-bla reporter, EGF-induced, beta-lactamase ratio, 5 h;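 also: ME-180 reporter cells stimulated with EGF at its EC50 level; top concentration of the series differs between compounds; % is scaled to controls: 0 for no effect and ±100 for the full control effect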
# In short: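 Titration-series screen for positive or negative modulators of EC50 EGF-induced signaling in ME-180 cells carrying an AP-1-driven beta-lactamase reporter. After 5 hours at 37 degrees Celsius, CCF4 460nm/530nm emission ratio gave %Activity; AC50 values derived.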
# [2] = Cell Viability - BJ (AID 421; calls by dose curve;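 also: potency is read from the fitted curve at half-maximal effect; cells exposed to compound for 40 hours at 37 °C before readout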); conditions: BJ fibroblast viability, qHTS
# In short: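 Cytotoxicity as drop in intracellular ATP (CellTiter-Glo, 20 min RT) after 40 hr compound exposure of BJ fibroblasts at 37 °C. Titrations scaled between DMSO and 100 uM tamoxifen, Hill-fitted for AC50.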
# [3] = Cell Viability - Hek293 (AID 427;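 active = compounds whose dose-response curve shows a full or clear partial loss of cell viability, called from curve shape rather than a numeric limit; inconclusive = weak partial curves or an effect only at the top dose; inactive = no dose-dependent loss of viability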;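 also: potency is read from the fitted curve at half-maximal effect; cells exposed to compound for 40 hours at 37 °C before reading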); conditions: qHTS
# In short: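 Luminescent ATP content (CellTiter-Glo, 20 min at room temperature) was measured after a 40 hr, 37 °C compound exposure of HEK293 cells. AC50 values came from Hill-equation fits of qHTS concentration-response data normalized to DMSO and 100 uM tamoxifen.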
# [4] = Cell Viability - MRC5 (AID 434; calls by dose curve;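 also: potency is read from the fitted curve at half-maximal effect; cells exposed to compound for 40 hours at 37 °C; potency reflects cytotoxicity seen as loss of intracellular ATP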); conditions: MRC5 lung fibroblast viability, qHTS
# In short: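 AC50 values come from Hill-equation fits of intracellular ATP loss, measured by CellTiter-Glo luminescence. Normal lung fibroblasts (MRC5) had 40 hr compound treatment at 37 C, normalized between DMSO and 100 uM tamoxifen.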
# [5] = Cell Viability - SK-N-SH (AID 435; calls by dose curve;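 also: potency is read from the fitted curve at half-maximal effect; compound exposure lasted 40 h at 37 °C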); conditions: SK-N-SH neuroblastoma cell viability qHTS
# In short: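 Luminescent ATP signal served as the viability read-out after 40 hours of compound treatment of human neuroblastoma SK-N-SH cells. Concentration-response data, scaled between DMSO and 100 uM tamoxifen, gave AC50 values by standard Hill modeling.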
# [6] = Stat Signaling Pathway (AID 446); conditions: ME-180 (cervical carcinoma) SIE beta-lactamase reporter, IL-6 stimulated, 5 h;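 also: ME-180 cervical cancer cells given 40 pM IL-6 alongside compound; SIE-controlled beta-lactamase reporter measured as 460/530 nm FRET emission ratio; top concentration of the series differs between compounds; % is scaled to controls: 0 for no effect and ±100 for the full control effect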
# In short: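 FRET read-out (405 nm excitation, 460/530 nm emission) of a beta-lactamase reporter under a STAT-inducible element in ME-180 cervical carcinoma cells. Cells with compound receive 40 pM IL-6 for 5 h. Values are normalised to AC90 stimulation and AC90 JAK-inhibitor controls.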
# [7] = NFAT Signaling Pathway (AID 444); conditions: Jurkat NFAT-bla M1, carbachol, beta-lactamase ratio, 5 h;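 also: carbachol stimulus at about its EC50 of 1 µM final; % is scaled to controls: 0 for no effect and ±100 for the full control effect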
# In short: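 Read-out: CCF4 FRET ratio (460 nm/530 nm) after 1 h RT dye loading, used for %activity and AC50 from titration series. Cells: Jurkat NFAT-β-lactamase/M1 line, treated with compound plus 1 uM carbachol for 5 h, 37 °C.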
# [8] = molecular target: Glucocorticoid receptor (Homo sapiens) (UniProt P04150); assay: GR-GFP Redistribution (AID 450;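 active = compounds whose dose series gives a full or clear partial fitted curve of increased nuclear translocation; inconclusive = weak partial curve or effect only at the top dose; inactive = no dose-dependent translocation response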; also: potency is read from the fitted curve at half-maximal effect); conditions: U2OS GR-GFP nuclear translocation, laser cytometry, 2 h
# UniProt P04150, sequence (P04150 whole entry, looked up): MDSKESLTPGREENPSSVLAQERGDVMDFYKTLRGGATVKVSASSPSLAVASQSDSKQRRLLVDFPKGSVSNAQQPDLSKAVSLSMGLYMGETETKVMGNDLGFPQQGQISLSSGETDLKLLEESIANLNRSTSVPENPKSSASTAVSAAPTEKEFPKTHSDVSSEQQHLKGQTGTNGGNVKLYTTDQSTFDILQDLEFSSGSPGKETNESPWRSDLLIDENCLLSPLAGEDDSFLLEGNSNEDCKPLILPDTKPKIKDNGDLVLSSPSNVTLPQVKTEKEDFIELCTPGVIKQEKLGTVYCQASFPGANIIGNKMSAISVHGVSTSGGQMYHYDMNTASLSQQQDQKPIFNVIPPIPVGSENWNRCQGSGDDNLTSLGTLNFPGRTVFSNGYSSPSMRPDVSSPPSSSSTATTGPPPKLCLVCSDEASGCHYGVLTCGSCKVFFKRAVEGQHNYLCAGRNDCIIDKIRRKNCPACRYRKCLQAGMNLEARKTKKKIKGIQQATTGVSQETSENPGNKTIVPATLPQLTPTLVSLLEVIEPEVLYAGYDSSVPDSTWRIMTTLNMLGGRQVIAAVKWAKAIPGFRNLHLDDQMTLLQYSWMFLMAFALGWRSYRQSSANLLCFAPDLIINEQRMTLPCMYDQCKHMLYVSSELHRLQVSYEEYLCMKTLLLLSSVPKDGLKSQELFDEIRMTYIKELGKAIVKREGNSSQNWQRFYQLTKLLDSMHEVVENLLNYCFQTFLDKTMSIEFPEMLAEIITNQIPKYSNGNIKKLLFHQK
# [9] = Cell Viability - HepG2 (AID 433; calls by dose curve;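 also: potency is read from the fitted curve at half-maximal effect; potency for ATP loss meaning cytotoxicity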); conditions: qHTS
# In short: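 Read-out is luciferase-based quantitation of cellular ATP as a measure of viable HepG2 cells after 40 h treatment at 37 °C. Signal decrease is scaled between DMSO-only and 100 uM tamoxifen controls, with AC50 fitted by the Hill equation.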
# Tags tell the direction and shape of the fitted curve.
structure (smiles),measurement,setting,value
O=C(O)CCCc1ccc(N(CCCl)CCCl)cc1,"activity change, negative = inhibition",[1]; at 17.2 µM (top of the series),inactive: 7.36% and inactive: 14.7%
same,"activity change, negative = inhibition",[1]; at 38 µM (top of the series),inactive: 2.44%
same,Potency,[2],inconclusive: 93.9 µM [single point]
same,Potency,[3],active: 18.6 µM
same,Potency,[4],inconclusive: 55 µM [single point]
same,Potency,[5],inconclusive: 27.3 µM [partial curve]
same,"activity, negative = inhibition",[6]; at 38 µM (top of the series),inconclusive: -63.6% [inhibitor]
O=P1(N(CCCl)CCCl)NCCCO1 (centres undefined),"activity, negative = inhibition",[6]; at 38 µM (top of the series),inconclusive: 95.1% [activator]
O=C(O)c1nn(Cc2ccc(Cl)cc2Cl)c2ccccc12,"activity change, negative = inhibition",[7]; at 38 µM (top of the series),inactive: -9.69%
same,"activity, negative = inhibition",[6]; at 38 µM (top of the series),inconclusive: -35.7% [inhibitor]
CCCCCCCCC(=O)NCc1ccc(O)c(OC)c1,"activity, negative = inhibition",[6]; at 38 µM (top of the series),inactive: 16.9%
S=C(NC1CCCCC1)N1CCC(c2cnc[nH]2)CC1,"activity change, negative = inhibition",[7]; at 38 µM (top of the series),inconclusive: -53.4% [inhibitor]
c1ccc2c(c1)OCC(C1=NCCN1)O2 (centres undefined),"activity change, negative = inhibition",[7]; at 17.2 µM (top of the series),inconclusive: -45% [inhibitor]
CCCCOC(=O)c1ccccc1C(=O)OCc1ccccc1,Potency,[5],inactive: > 92 µM
CCOP(=S)(OCC)Oc1cc(C)nc(C(C)C)n1,Potency,[5],inactive: > 92 µM
CCCN1CCC[C@@H]2Cc3[nH]ncc3C[C@H]21,Potency,[8],inactive: > 46 µM and inactive: > 20.6 µM and inconclusive: 41.4 µM [single point]
NCCc1ccc(O)cc1,"activity, negative = inhibition",[6]; at 38 µM (top of the series),inconclusive: 27.4% [activator]
CCN(CC)C(=O)N[C@@H]1C=C2c3cccc4[nH]cc(c34)C[C@@H]2N(C)C1,"activity, negative = inhibition",[6]; at 38 µM (top of the series),inconclusive: -36.4% [inhibitor]
COc1ccc(Cc2nccc3cc(OC)c(OC)cc23)cc1OC,"activity, negative = inhibition",[6]; at 17.2 µM (top of the series),inconclusive: -25.2% [inhibitor]
COc1ccc2c(c[n+](C)c3c4cc5c(cc4ccc23)OCO5)c1OC,"activity, negative = inhibition",[6]; at 38 µM (top of the series),inconclusive: 83% [activator]
O=c1cccc2n1CC1CNC[C@H]2C1,Potency,[8],inconclusive: 37 µM [single point]
CNC(=O)Oc1cccc2ccccc12,Potency,[5],inactive: > 92 µM
CN(N=O)c1ccc(O)c(O)c1,"activity, negative = inhibition",[6]; at 38 µM (top of the series),inconclusive: -55.1% [inhibitor]
O=C(CCl)c1ccc(Cl)cc1Cl,Potency,[4],inconclusive: 46 µM [partial curve]
C[C@]12CCC(=O)C=C1CC[C@@H]1[C@@H]2CC[C@]2(C)C(=O)CC[C@@H]12,Potency,[4],inconclusive: 62.5 µM [single point]
N[C@@H](Cc1ccc(N(CCCl)CCCl)cc1)C(=O)O,Potency,[3],inconclusive: 26.4 µM [partial curve]
same,Potency,[9],inconclusive: 91.5 µM [single point]
same,Potency,[4],inconclusive: 86.5 µM [partial curve]
C[C@H]1CC[C@@H]2[C@@H](C)[C@H]3[C@H](C[C@H]4[C@@H]5CC=C6CC(O[C@@H]7O[C@H](CO)[C@H](O)[C@H](O[C@@H]8O[C@H](CO)[C@@H](O)[C@H](O)[C@H]8O)[C@H]7O[C@H]7O[C@@H](C)[C@H](O)[C@@H](O)[C@H]7O)CC[C@]6(C)[C@H]5CC[C@]34C)N2C1 (some centres undefined),Potency,[3],active: 39.3 µM
same,Potency,[5],active: 24.8 µM
COc1c2c(cc3c1OCO3)CCN(C)C2,"activity change, negative = inhibition",[7]; at 17.2 µM (top of the series),inactive: -27%
Nc1ccc(Cl)cc1N,Potency,[9],inconclusive: 81.3 µM [partial curve]
CC(C)[N+](C)(CCC(C(N)=O)(c1ccccc1)c1ccccc1)C(C)C,"activity change, negative = inhibition",[7]; at 17.2 µM (top of the series),inconclusive: -50.2% [inhibitor]
CCC(COC(=O)c1cc(OC)c(OC)c(OC)c1)(c1ccccc1)N(C)C (centres undefined),Potency,[8],inconclusive: 33 µM [partial curve]
CCCN1CCO[C@@H]2c3cc(O)ccc3OC[C@@H]21,Potency,[8],inconclusive: 37.3 µM [partial curve]
CN1[C@@H]2CC[C@H]1CC(OC(=O)c1cc(Cl)cc(Cl)c1)C2 (some centres undefined),Potency,[8],inconclusive: 32.9 µM [partial curve]
C=CCN1CCC2(C)c3cc(O)ccc3C[C@H]1[C@H]2C,"activity change, negative = inhibition",[7]; at 38 µM (top of the series),inconclusive: -37.4% [inhibitor]
CC1=NN=C(c2ccc(N)cc2)c2cc3c(cc2C1)OCO3,"activity, negative = inhibition",[6]; at 38 µM (top of the series),inconclusive: 104% [activator]
Cc1ccc(S(=O)(=O)N[C@@H](CCCCN)C(=O)CCl)cc1,"activity, negative = inhibition",[6]; at 38 µM (top of the series),active: -67%
COc1cc(OC)c(OC)cc1C=O,Potency,[5],inactive: > 92 µM
CN(N=O)c1cc(O)ccc1O,"activity, negative = inhibition",[6]; at 38 µM (top of the series),inconclusive: -33.3% [inhibitor]
C[C@H]1CCC[C@H](O)CCCCCc2cc(O)cc(O)c2C(=O)O1,Potency,[3],inconclusive: 101 µM [single point]
CN[C@@H]1C[C@@H](c2ccc(Cl)c(Cl)c2)c2ccccc21,"activity, negative = inhibition",[6]; at 38 µM (top of the series),inconclusive: -44.1% [inhibitor]
CN1C[C@H](CNC(=O)OCc2ccccc2)C[C@@H]2c3cccc4c3c(cn4C)C[C@H]21,Potency,[8],inconclusive: 30.8 µM [single point]
CC(C)N(CCC(C(N)=O)(c1ccccc1)c1ccccn1)C(C)C (centres undefined),"activity change, negative = inhibition",[7]; at 17.2 µM (top of the series),inconclusive: -77.6% [inhibitor]
CCCCC/C=C\C/C=C\C/C=C\C/C=C\CCCC(=O)NCC(=O)O,"activity, negative = inhibition",[6]; at 38 µM (top of the series),inconclusive: 52.3% [activator]
CCOC(=O)CC(SP(=S)(OC)OC)C(=O)OCC (centres undefined),Potency,[4],inactive: > 92 µM
same,Potency,[5],inconclusive: 240 µM [single point]
N#CC(C#N)=Cc1ccc(O)c(O)c1,"activity change, negative = inhibition",[7]; at 38 µM (top of the series),inactive: -13.6%
